Reference: the supplement of paper PMC7826260
The other results are listed elsewhere or left out. Viral Rep nickase domains cut single-stranded DNA in vitro (3 µM enzyme, 1 h, 37 °C); shown is the middle of each 90-letter strand. Numbers give uncut DNA relative to the enzyme-free pool, as log2; the lower, the more was cut; hits are not called. Reads are scaled to the total; uncut strands gain when others are lost, and binding without cutting may add a little.

What was measured:
Assay in all cases: uncleaved DNA left, log2 of reads against the no-enzyme library (log2 ratio); higher = less cleavage (more negative = more Rep cleavage of the k-mer); sequences stand for … in CTCGTCCG…ACCGGAGA
[1] = tested on: T1, Rep nickase domain of Muscovy duck circovirus
T1 sequence (residues 1-111 of Rep, tag left off): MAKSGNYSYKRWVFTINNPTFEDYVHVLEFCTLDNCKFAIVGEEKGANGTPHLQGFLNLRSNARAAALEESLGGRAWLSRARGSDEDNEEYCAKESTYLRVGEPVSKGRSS
Protocol: (§1)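 A pool of 90-nt single-stranded DNAs with seven random bases just before the constant AC of the nick site (name = the seven bases) was cut by 3 µM recombinant His6-SUMO-tagged Rep nickase domain (300 nM DNA, 50 mM HEPES pH 8.0, 50 mM NaCl, 1 mM MnCl2, 1 h, 37 °C, three replicates). Uncut DNA was amplified and sequenced.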

[2] = tested on: T2, Rep nickase domain of banana bunchy top virus
T2 sequence (residues 1-94 of Rep, tag left off): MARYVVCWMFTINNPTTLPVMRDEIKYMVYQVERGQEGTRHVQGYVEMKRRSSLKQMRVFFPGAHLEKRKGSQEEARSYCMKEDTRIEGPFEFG
Protocol: as §1

[3] = tested on: T3, Rep nickase domain of cabbage leaf curl virus
T3 sequence (residues 1-116 of Rep, tag left off): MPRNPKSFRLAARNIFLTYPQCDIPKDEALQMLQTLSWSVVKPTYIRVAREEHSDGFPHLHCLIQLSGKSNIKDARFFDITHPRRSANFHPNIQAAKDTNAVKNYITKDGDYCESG
Protocol: as §1

[4] = tested on: T4, Rep nickase domain of chickpea chlorotic dwarf virus
T4 sequence (residues 1-124 of Rep, tag left off): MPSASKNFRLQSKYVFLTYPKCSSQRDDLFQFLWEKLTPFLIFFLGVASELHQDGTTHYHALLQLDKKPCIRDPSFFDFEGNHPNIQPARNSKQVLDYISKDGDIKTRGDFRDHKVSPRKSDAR
Protocol: as §1

[5] = tested on: T5, Rep nickase domain of faba bean necrotic yellows virus
T5 sequence (residues 1-98 of Rep, tag left off): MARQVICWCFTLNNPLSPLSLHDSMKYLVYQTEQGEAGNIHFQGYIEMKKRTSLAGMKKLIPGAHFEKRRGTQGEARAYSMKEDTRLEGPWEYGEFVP
Protocol: as §1

[6] = tested on: T6, Rep nickase domain of maize striate mosaic virus
T6 sequence (residues 1-117 of Rep, tag left off): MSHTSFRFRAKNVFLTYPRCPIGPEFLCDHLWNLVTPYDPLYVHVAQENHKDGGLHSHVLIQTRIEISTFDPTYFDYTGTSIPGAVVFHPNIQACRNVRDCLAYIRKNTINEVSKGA
Protocol: as §1

[7] = tested on: T7, Rep nickase domain of porcine circovirus 2
T7 sequence (residues 2-116 of Rep, tag left off): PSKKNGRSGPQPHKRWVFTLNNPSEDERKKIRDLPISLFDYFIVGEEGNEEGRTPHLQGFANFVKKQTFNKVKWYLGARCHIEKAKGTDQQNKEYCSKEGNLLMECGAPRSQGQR
Protocol: as §1

[8] = tested on: T8, Rep nickase domain of tomato golden mosaic virus
T8 sequence (residues 1-124 of Rep, tag left off): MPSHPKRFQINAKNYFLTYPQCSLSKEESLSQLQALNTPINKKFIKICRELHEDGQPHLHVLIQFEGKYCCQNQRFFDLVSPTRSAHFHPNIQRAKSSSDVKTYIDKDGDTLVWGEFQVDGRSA
Protocol: as §1

[9] = tested on: T9, Rep nickase domain of tomato yellow leaf curl virus
T9 sequence (residues 1-136 of Rep, tag left off): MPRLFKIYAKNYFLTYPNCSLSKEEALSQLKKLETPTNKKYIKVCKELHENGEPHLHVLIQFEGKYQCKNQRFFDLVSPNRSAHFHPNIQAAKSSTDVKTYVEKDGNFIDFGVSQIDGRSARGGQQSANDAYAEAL
Protocol: as §1

[10] = tested on: T10, Rep nickase domain of wheat dwarf virus
T10 sequence (residues 1-137 of Rep, tag left off): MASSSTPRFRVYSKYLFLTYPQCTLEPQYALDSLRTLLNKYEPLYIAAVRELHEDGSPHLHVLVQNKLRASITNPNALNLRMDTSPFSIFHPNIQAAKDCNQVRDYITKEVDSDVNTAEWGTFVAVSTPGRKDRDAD
Protocol: as §1

| Sequence | uncleaved DNA left (log2) [1] | uncleaved DNA left (log2) [2] | uncleaved DNA left (log2) [3] | uncleaved DNA left (log2) [4] | uncleaved DNA left (log2) [5] | uncleaved DNA left (log2) [6] | uncleaved DNA left (log2) [7] | uncleaved DNA left (log2) [8] | uncleaved DNA left (log2) [9] | uncleaved DNA left (log2) [10] |
| --- | --- | --- | --- | --- | --- | --- | --- | --- | --- | --- |
| TGTAAAG | 0.0502 | 0.0271 | -0.581 | -0.496 | -0.0101 | -1.11 | 0.209 | 0.0476 | 0.038 | -0.0219 |
| AAGAGGA | 0.0902 | -0.027 | 0.222 | 0.746 | 0.0806 | 0.346 | 0.0278 | 0.145 | -0.0283 | -0.029 |
| GATGTTG | 0.0181 | -0.0995 | -0.269 | -0.172 | 0.0844 | -0.628 | 0.0998 | -0.0561 | 0.0158 | -0.0435 |
| ACCGCGG | 0.0961 | -0.039 | -0.29 | -0.223 | 0.0197 | -0.463 | 0.154 | 0.0888 | 0.0548 | 0.0538 |
| AGCGGAT | 0.0751 | 0.209 | 0.326 | 1.53 | 0.139 | 1.89 | 0.294 | 0.213 | -0.061 | 0.0681 |
| GGAAGCA | 0.111 | 0.0896 | 0.67 | 1.4 | 0.0437 | 1.69 | 0.144 | 0.0876 | 0.0777 | 0.121 |
| CTCTTGT | -0.383 | -0.18 | -0.421 | -0.993 | -0.00426 | -0.99 | -0.815 | -0.323 | -0.143 | -0.0844 |
| TGTTAAA | 0.103 | 0.119 | 0.256 | 0.372 | 0.0729 | 0.422 | 0.0729 | 0.0545 | 0.125 | 0.0881 |
| ATGTGTA | -0.126 | -0.0979 | -0.241 | -0.848 | 0.0029 | -0.476 | -0.928 | -0.00842 | -0.0665 | -0.0249 |
| ACAAGCA | 0.00828 | 0.00954 | -0.494 | -1.07 | -0.0101 | -0.972 | 0.0356 | -0.0433 | 0.0596 | 0.000752 |
| CTCTAAG | 0.113 | 0.131 | -0.782 | -0.218 | 0.126 | -1.16 | 0.273 | 0.104 | 0.146 | 0.0312 |
| CGCATTG | 0.141 | 0.00636 | -0.207 | 0.186 | -0.0385 | -0.0416 | 0.0411 | 0.0647 | 0.124 | -0.0182 |
| GTGTCAA | -0.011 | 0.12 | 0.294 | 1.02 | 0.0106 | 1.88 | 0.16 | 0.102 | 0.1 | 0.139 |
| TTGCGAG | 0.0565 | -0.0654 | -0.484 | -0.234 | 0.0483 | -0.812 | 0.111 | -0.0719 | 0.0989 | -0.0951 |
| GGCTCTA | 0.124 | 0.162 | 0.412 | 0.866 | -0.0436 | 1.61 | 0.0713 | -0.00112 | 0.139 | 0.137 |
| GTAATTC | -0.0014 | 0.0477 | 0.31 | 0.865 | -0.0284 | 1.45 | -0.0123 | -0.0351 | 0.017 | 0.076 |
| TAATGAA | -0.916 | -0.0596 | -2.75 | -2.25 | 0.0547 | -0.883 | -2.03 | -0.714 | -0.0243 | -1.36 |
| CGAAGCT | -0.0617 | -0.131 | 0.165 | 0.314 | -0.123 | 0.329 | -0.0022 | 0.00263 | -0.0262 | 0.0238 |
| TGCTTCT | -1.42 | -0.24 | -0.22 | -2.13 | -0.176 | -0.568 | -2.61 | -0.236 | -0.138 | -0.194 |
| TTCTACA | -0.0859 | -0.0174 | -0.0539 | -2.35 | -0.108 | 0.131 | -0.558 | -0.0937 | -0.0998 | -0.069 |
| TTGGCAG | 0.0843 | 0.131 | -0.424 | -0.241 | 0.0683 | -0.825 | 0.238 | 0.0937 | 0.04 | 0.0167 |
| GGCGGCT | -0.0736 | -0.111 | 0.0742 | 0.677 | -0.115 | 1.73 | -0.0971 | -0.00107 | -0.0699 | -0.101 |
| GTCCATG | 0.0682 | 0.158 | 0.221 | 0.776 | 0.137 | 1.5 | 0.145 | 0.132 | 0.107 | 0.0753 |
| GCCGAGG | 0.0635 | -0.141 | 0.599 | 1.13 | -0.0625 | 1.38 | 0.0896 | 0.0234 | 0.00847 | -0.00912 |
| TTGCGGG | -0.0261 | -0.0733 | -0.663 | -0.74 | -0.055 | -0.894 | 0.00377 | -0.0739 | -0.0605 | -0.0985 |
| CCTTGAC | -0.208 | -0.269 | -0.291 | -2.18 | -0.165 | -1.13 | 0.0143 | -0.101 | -0.206 | -0.253 |
| AGTTTGA | 0.00178 | -0.0945 | -0.0214 | 0.0602 | 0.0854 | -0.503 | -0.346 | 0.0448 | 0.0704 | -0.012 |
| GGGGATC | -0.0153 | -0.0262 | 0.696 | 1.83 | -0.105 | 2.2 | 0.0911 | -0.0608 | -0.186 | 0.0844 |
| CTCTTTC | -0.132 | -0.118 | 0.0757 | -0.544 | -0.0478 | -0.836 | -0.0468 | -0.167 | -0.118 | -0.0239 |
| GCGGAGA | 0.0463 | 0.0213 | 0.622 | 1.36 | -0.0713 | 1.42 | 0.172 | 0.124 | 0.0753 | 0.0653 |
